# Several values for one entry are separate records, joined by “and”; a condition that tells them apart may be missing. Equal entries are not always repeated. Inconclusive means that the source gave no clear call. Such entries were picked first, then a sample of the others. Potencies beside an inconclusive call are fits to weak or partial responses and may not hold up. A structure can be active in one record and inactive in another. Activity calls are given as the source filed them. Unless noted, calls follow the shape of the dose curve; as a rule, active = well fitted curve in the direction sought with a large enough effect in the repeat runs; inconclusive = weak or mixed curves; inactive = no such curve, though single readings can be large; an effect the other way counts as inactive or inconclusive.
# Key:
# [1] = qHTS assay to identify small molecule antagonists of the retinoid-related orphan receptor gamma (ROR-gamma) signaling pathway - cell viability counter screen (AID 1159520); also: nearly all actives have a fitted effect of over 50% in size
# Procedure, shortened: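 Tet-on ROR gamma CHO cells were given compounds for 2 hr, then doxycycline hyclate at 1 uM final, and incubated 16 hr at 37 C. Viability was measured as ATP content by CellTiter-Glo luminescence.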
# [2] = qHTS assay to identify small molecule agonists of the AP-1 signaling pathway (AID 1159526; calls by dose curve; as to activation: % is scaled to controls: 0 for no effect and ±100 for the full control effect); conditions: ME-180 (cervical carcinoma) AP-1-bla reporter, beta-lactamase FRET ratio, 5 h; activation: at 76.8 µM (top of the series) unless noted
# [3] = target: Retinoic acid receptor RXR-alpha (Homo sapiens) (UniProt P19793); test: qHTS assay to identify small molecule agonists of the RXR signaling pathway (AID 1159527; calls by dose curve; also: nearly all actives have a fitted effect of over 35% in size; as to activation: % is scaled to controls: 0 for no effect and ±100 for the full control effect); conditions: HEK293T RXRa-UAS-bla, beta-lactamase ratio, 16 h; activation: at 76.8 µM (top of the series) unless noted
# Procedure, shortened: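 Fluorescence ratio readout (460 vs 530 nm) from GeneBLAzer RXR-alpha HEK 293T cells after 16 hr compound treatment; cells seeded 5 hr beforehand in low-serum, charcoal-stripped medium.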
# [4] = qHTS assay to identify small molecule agonists of the RXR signaling pathway - cell viability counter screen (AID 1159529); also: nearly all actives have a fitted effect of over 50% in size
# Procedure, shortened: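 Viability read-out for the RXR-alpha agonist qHTS: luminescent CellTiter-Glo signal after 30 min at RT. HEK 293T bla reporter cells, 2% charcoal-stripped FBS, 16 hr compound incubation; tetraoctyl ammonium bromide as cytotoxic control.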
# [5] = qHTS assay to identify small molecule agonists of the retinoic acid receptor (RAR) signaling pathway (AID 1159553); conditions: C3RL4 RARE luciferase reporter, agonist, 6 h; activation: at 73.3 µM (top of the series) unless noted; as to activation: % is scaled to controls: 0 for no effect and ±100 for the full control effect
# Procedure, shortened: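 Activation of retinol signaling was monitored via a RARE luciferase reporter in C3RL4 cells. After 6 hr compound treatment at 37 C, detection reagent was added for 30 min at room temperature before luminescence reading.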
# [6] = qHTS assay to identify small molecule antagonists of the retinoid acid receptor (RAR) signaling pathway - cell viability counter screen (AID 1159551); also: nearly all actives have a fitted effect of over 35% in size
# Procedure, shortened: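 Seed C3RL4 cells; next day add compound, then retinol to 1 uM final; incubate 6 h at 37 C; add CellTiter-Glo; read luminescence after 30 min at RT.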
# [7] = qHTS assay to identify small molecule antagonists of the retinoic acid receptor (RAR) signaling pathway (AID 1159552; also: nearly all actives have a fitted effect of over 50% in size)
# Procedure, shortened: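 Using a RARE-driven luciferase construct in C3RL4 cells, retinol at 1 uM final provided the agonist stimulus while compounds were co-applied. After 6 hours at 37 C, luminescence was recorded to flag inhibitors of retinol signaling.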
# Potency is read from the fitted curve at half-maximal effect; tags tell the direction and shape of the fitted curve or compound fluorescence and quenching.
# Sequence of UniProt P19793 (P19793 whole entry, looked up): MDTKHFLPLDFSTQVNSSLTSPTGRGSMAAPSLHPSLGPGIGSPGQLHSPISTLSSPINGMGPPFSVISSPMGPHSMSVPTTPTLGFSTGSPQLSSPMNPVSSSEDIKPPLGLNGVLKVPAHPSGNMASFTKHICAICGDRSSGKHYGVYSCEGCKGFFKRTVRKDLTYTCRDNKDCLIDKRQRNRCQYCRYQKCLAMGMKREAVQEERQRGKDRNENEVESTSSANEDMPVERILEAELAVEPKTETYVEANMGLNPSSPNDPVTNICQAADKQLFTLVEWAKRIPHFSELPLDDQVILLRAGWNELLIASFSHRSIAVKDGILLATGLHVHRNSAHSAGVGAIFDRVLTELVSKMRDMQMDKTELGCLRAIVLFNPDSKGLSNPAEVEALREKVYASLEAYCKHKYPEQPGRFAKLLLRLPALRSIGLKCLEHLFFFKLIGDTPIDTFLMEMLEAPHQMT
smiles,measurement,setting,value
C=C(C)C(=O)OCCCCOC(=O)C(=C)C,Potency,[1],inactive
same,Potency,[2],inactive
Clc1ccc(C(OCCN2CCCCC2)c2ccccc2)cc1 (stereo unspecified),Potency,[1],inactive
same,Potency,[2],"inconclusive: 13.4 µM [falling, partial curve]"
same,activation,[3],inconclusive: -29% [at 35.3 µM]
same,Potency,[4],"inconclusive: 10.7 µM [cytotoxic, partial curve]"
Cc1ccc(-c2c(Cl)nc(C#N)n2S(=O)(=O)N(C)C)cc1,Potency,[1],"inconclusive: 30.6 µM [cytotoxic, partial curve, poor fit]"
same,Potency,[2],inconclusive: 38.9 µM
same,Potency,[3],"inconclusive: 30.9 µM [rising, partial curve]"
same,Potency,[4],"inconclusive: 1.38 µM [cytotoxic, full curve, poor fit]"
same,Potency,[5],active: 68.5 µM
CN(C)N=O,Potency,[1],"inconclusive: 43.1 µM [cytotoxic, partial curve]"
same,Potency,[2],inactive
Oc1c(I)cc(I)cc1I,Potency,[1],inconclusive: 61.1 µM [cytotoxic]
same,activation,[2],inconclusive: -24.2%
same,Potency,[3],"inconclusive: 24.5 µM [inhibitor, partial curve, poor fit]"
same,Potency,[4],"inconclusive: 7.76 µM [cytotoxic, partial curve]"
same,Potency,[6],"inconclusive: 68.6 µM [cytotoxic, partial curve, poor fit]"
same,Potency,[7],inconclusive: 68.6 µM [inhibitor]
ClCc1ccccc1CCl,Potency,[1],active: 43.3 µM
same,Potency,[3],inactive
CCCCNP(N)(N)=S,Potency,[1],inactive
same,Potency,[2],"inconclusive: 2.75 µM [activator, full curve, poor fit]"
C[C@H]1[C@H](c2ccc(Cl)cc2)SC(=O)N1C(=O)NC1CCCCC1,Potency,[1],"inconclusive: 68.6 µM [cytotoxic, partial curve, poor fit]"
same,activation,[3],inconclusive: -28.9%
N#Cc1cc(Br)c(O)c(Br)c1,Potency,[1],"inconclusive: 27.3 µM [cytotoxic, partial curve]"
same,Potency,[2],"inconclusive: 42 µM [inhibitor, partial curve, poor fit]"
same,Potency,[4],active: 11 µM and active: 13.3 µM
O.O.O.O.O.O.O.O=S(=O)([O-])[O-].[Co+2],Potency,[1],"inconclusive: 27.5 µM [cytotoxic, partial curve, poor fit]"
same,Potency,[2],inactive
Cc1ccccc1OP(=O)(Oc1ccccc1C)Oc1ccccc1C,Potency,[1],"inconclusive: 77.3 µM [cytotoxic, partial curve, poor fit]"
same,Potency,[2],"inconclusive: 39.1 µM [falling, partial curve, poor fit]"
same,Potency,[3],inconclusive: 4.92 µM [inhibitor]
same,Potency,[4],"inconclusive: 24.6 µM [cytotoxic, partial curve]"
same,Potency,[7],"inconclusive: 43.5 µM [inhibitor, partial curve]"
same,activation,[5],inconclusive: -9.37% [phenotype inactive] [at 94.8 µM]
CC1(c2ccc(Oc3ccccc3)cc2)OC(=O)N(Nc2ccccc2)C1=O (stereo unspecified),Potency,[1],active: 54.8 µM
same,Potency,[2],"inconclusive: 39.1 µM [falling, partial curve]"
same,Potency,[3],"inconclusive: 3.49 µM [inhibitor, full curve]"
same,Potency,[4],"inconclusive: 39.1 µM [cytotoxic, partial curve]"
same,Potency,[6],"inconclusive: 6.15 µM [cytotoxic, partial curve, poor fit]"
same,Potency,[7],active: 27.5 µM
same,Potency,[5],"inconclusive: 34.6 µM [inhibitor, partial curve, poor fit]"
Cc1ccc(N)c(C)c1,Potency,[1],inactive
same,Potency,[3],inactive
CCOP(=O)(O)OCC (tested in a mixture with another compound),Potency,[1],active: 54 µM
same,Potency,[2],"inconclusive: 48.6 µM [cytotoxic, partial curve]"
same,Potency,[3],"inconclusive: 38.6 µM [cytotoxic, partial curve, poor fit]"
same,Potency,[4],inactive and active: 17.2 µM
CC(C)(C)c1cc([N+](=O)[O-])cc([N+](=O)[O-])c1O,Potency,[1],"inconclusive: 8.61 µM [cytotoxic, full curve]"
same,activation,[2],inconclusive: -18.2%
same,Potency,[3],"inconclusive: 8.69 µM [inhibitor, full curve]"
CCOC(=O)CP(=O)(OCC)OCC,Potency,[1],inactive
same,activation,[3],inconclusive: 13.6%
CC(=[OH+])/C=C(/C)[O-].CC(=[OH+])/C=C(\C)[O-].CC(=[OH+])/C=C(\C)[O-].[Fe],Potency,[1],inactive
same,Potency,[3],inactive

# Source: PubChem BioAssay (Tox21)
